According to article PMC9911399, “Two distinct binding modes provide the RNA-binding protein RbFox with extraordinary sequence specificity”:
Changes are numbered by the printed parent chain; changes in the protein carry UniProt numbers. This is one part of the list.

T1: RBFOX1 RRM (Homo sapiens, UniProt Q9NWB1 109-208)
T1 sequence: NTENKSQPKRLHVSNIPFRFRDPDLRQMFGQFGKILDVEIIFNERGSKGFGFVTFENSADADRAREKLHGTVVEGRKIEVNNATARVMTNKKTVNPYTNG

B1: CAUGUAU (DNA:RNA)
RNA: GGGAGACCGGAAUUCAGAUUGUCCCAUGUAUUUAAAUCCCGUCGUAGCCACCA
DNA 1: CAATCTGAATTCCGGTCTCCC
DNA 2: TGGTGGCTACGACGGGATT
B2: CAUGGGA (DNA:RNA)
RNA: B1 RNA with U29G, A30G, U31A
DNA 1: CAATCTGAATTCCGGTCTCCC
DNA 2: TGGTGGCTACGACGGGATT
B3: UAGAUCC (DNA:RNA)
RNA: B1 RNA with C25U, U27G, G28A, A30C, U31C
DNA 1: CAATCTGAATTCCGGTCTCCC
DNA 2: TGGTGGCTACGACGGGATT
B4: CGUCCGC (DNA:RNA)
RNA: B1 RNA with A26G, G28C, U29C, A30G, U31C
DNA 1: CAATCTGAATTCCGGTCTCCC
DNA 2: TGGTGGCTACGACGGGATT
B5: AGGGAAC (DNA:RNA)
RNA: B1 RNA with C25A, A26G, U27G, U29A, U31C
DNA 1: CAATCTGAATTCCGGTCTCCC
DNA 2: TGGTGGCTACGACGGGATT
B6: GUCGUUA (DNA:RNA)
RNA: B1 RNA with C25G, A26U, U27C, A30U, U31A
DNA 1: CAATCTGAATTCCGGTCTCCC
DNA 2: TGGTGGCTACGACGGGATT
B7: CGUGAUG (DNA:RNA)
RNA: B1 RNA with A26G, U29A, A30U, U31G
DNA 1: CAATCTGAATTCCGGTCTCCC
DNA 2: TGGTGGCTACGACGGGATT
B8: CAAGAGG (DNA:RNA)
RNA: B1 RNA with U27A, U29A, A30G, U31G
DNA 1: CAATCTGAATTCCGGTCTCCC
DNA 2: TGGTGGCTACGACGGGATT
B9: UCCAUCC (DNA:RNA)
RNA: B1 RNA with C25U, A26C, U27C, G28A, A30C, U31C
DNA 1: CAATCTGAATTCCGGTCTCCC
DNA 2: TGGTGGCTACGACGGGATT
B10: CGGUCAU (DNA:RNA)
RNA: B1 RNA with A26G, U27G, G28U, U29C
DNA 1: CAATCTGAATTCCGGTCTCCC
DNA 2: TGGTGGCTACGACGGGATT
B11: UACGUAA (DNA:RNA)
RNA: B1 RNA with C25U, U27C, U31A
DNA 1: CAATCTGAATTCCGGTCTCCC
DNA 2: TGGTGGCTACGACGGGATT
B12: CGUAUGA (DNA:RNA)
RNA: B1 RNA with A26G, G28A, A30G, U31A
DNA 1: CAATCTGAATTCCGGTCTCCC
DNA 2: TGGTGGCTACGACGGGATT
B13: CUCUUUC (DNA:RNA)
RNA: B1 RNA with A26U, U27C, G28U, A30U, U31C
DNA 1: CAATCTGAATTCCGGTCTCCC
DNA 2: TGGTGGCTACGACGGGATT
B14: AAGUCGG (DNA:RNA)
RNA: B1 RNA with C25A, U27G, G28U, U29C, A30G, U31G
DNA 1: CAATCTGAATTCCGGTCTCCC
DNA 2: TGGTGGCTACGACGGGATT
B15: UCCACCG (DNA:RNA)
RNA: GGGAGACCGGAAUUCAGAUUGUCCUCCACCGUUAAAUCCCGUCGUAGCCACCA
DNA 1: CAATCTGAATTCCGGTCTCCC
DNA 2: TGGTGGCTACGACGGGATT
B16: UGGAACG (DNA:RNA)
RNA: B15 RNA with C26G, C27G, C29A
DNA 1: CAATCTGAATTCCGGTCTCCC
DNA 2: TGGTGGCTACGACGGGATT
B17: AAGUGUC (DNA:RNA)
RNA: B1 RNA with C25A, U27G, G28U, U29G, A30U, U31C
DNA 1: CAATCTGAATTCCGGTCTCCC
DNA 2: TGGTGGCTACGACGGGATT
B18: CCCGGCC (DNA:RNA)
RNA: B15 RNA with U25C, A28G, C29G, G31C
DNA 1: CAATCTGAATTCCGGTCTCCC
DNA 2: TGGTGGCTACGACGGGATT
B19: ACCAUGG (DNA:RNA)
RNA: B15 RNA with U25A, C29U, C30G
DNA 1: CAATCTGAATTCCGGTCTCCC
DNA 2: TGGTGGCTACGACGGGATT
B20: CGCCCGG (DNA:RNA)
RNA: B15 RNA with U25C, C26G, A28C, C30G
DNA 1: CAATCTGAATTCCGGTCTCCC
DNA 2: TGGTGGCTACGACGGGATT
B21: GCAUGGA (DNA:RNA)
RNA: B15 RNA with U25G, C27A, A28U, C29G, C30G, G31A
DNA 1: CAATCTGAATTCCGGTCTCCC
DNA 2: TGGTGGCTACGACGGGATT
B22: CUCUGCA (DNA:RNA)
RNA: B15 RNA with U25C, C26U, A28U, C29G, G31A
DNA 1: CAATCTGAATTCCGGTCTCCC
DNA 2: TGGTGGCTACGACGGGATT
B23: UUCGGGU (DNA:RNA)
RNA: B1 RNA with C25U, A26U, U27C, U29G, A30G
DNA 1: CAATCTGAATTCCGGTCTCCC
DNA 2: TGGTGGCTACGACGGGATT
B24: ACCAGUU (DNA:RNA)
RNA: B15 RNA with U25A, C29G, C30U, G31U
DNA 1: CAATCTGAATTCCGGTCTCCC
DNA 2: TGGTGGCTACGACGGGATT
B25: AUCACGC (DNA:RNA)
RNA: B15 RNA with U25A, C26U, C30G, G31C
DNA 1: CAATCTGAATTCCGGTCTCCC
DNA 2: TGGTGGCTACGACGGGATT
B26: UACGACG (DNA:RNA)
RNA: B15 RNA with C26A, A28G, C29A
DNA 1: CAATCTGAATTCCGGTCTCCC
DNA 2: TGGTGGCTACGACGGGATT
B27: CGCUUGG (DNA:RNA)
RNA: B1 RNA with A26G, U27C, G28U, A30G, U31G
DNA 1: CAATCTGAATTCCGGTCTCCC
DNA 2: TGGTGGCTACGACGGGATT
B28: UCCAUAC (DNA:RNA)
RNA: B15 RNA with C29U, C30A, G31C
DNA 1: CAATCTGAATTCCGGTCTCCC
DNA 2: TGGTGGCTACGACGGGATT
B29: AGGGUGU (DNA:RNA)
RNA: B1 RNA with C25A, A26G, U27G, A30G
DNA 1: CAATCTGAATTCCGGTCTCCC
DNA 2: TGGTGGCTACGACGGGATT
B30: GUCCGCU (DNA:RNA)
RNA: B15 RNA with U25G, C26U, A28C, C29G, G31U
DNA 1: CAATCTGAATTCCGGTCTCCC
DNA 2: TGGTGGCTACGACGGGATT
B31: AGCGGAC (DNA:RNA)
RNA: B1 RNA with C25A, A26G, U27C, U29G, U31C
DNA 1: CAATCTGAATTCCGGTCTCCC
DNA 2: TGGTGGCTACGACGGGATT

molecular target: T1, RBFOX1 RRM; experiment: EMSA; HiTS-Eq, 1 nM pool, 10 min; buffer printed only for the single-RNA assays: 10 mM Tris pH 7.5, 150 mM NaCl, 3.4 mM EDTA, 0.001% NP-40, 30 C; details: tags: His6 N-terminal (pET28a); label: 5' 32P
Outline: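 A pool of RNA with 7 randomized nucleotides, 5′-radiolabelled and with DNA-annealed flanks, was equilibrated at 1 nM for 10 min in 50 µL with purified RbFox RRM, wild type or mutant, across increasing protein concentrations. Free RNA was separated by 8% native PAGE, excised, reverse-transcribed, barcoded by PCR and sequenced. Relative association constants were obtained from read-count changes of each RNA species versus the control reaction and normalised to the cognate motif.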

Binder	binding signal
B1	0.00422 KA relative to UGCAUGU
B2	0.00261 KA relative to UGCAUGU
B3	0.00654 KA relative to UGCAUGU
B4	0.00928 KA relative to UGCAUGU
B5	0.021 KA relative to UGCAUGU
B6	0.00816 KA relative to UGCAUGU
B7	0.0112 KA relative to UGCAUGU
B8	0.00441 KA relative to UGCAUGU
B9	0.00253 KA relative to UGCAUGU
B10	0.00557 KA relative to UGCAUGU
B11	0.00661 KA relative to UGCAUGU
B12	0.0123 KA relative to UGCAUGU
B13	0.0103 KA relative to UGCAUGU
B14	0.00936 KA relative to UGCAUGU
B15	0.000901 KA relative to UGCAUGU
B16	0.0367 KA relative to UGCAUGU

Binder	binding signal
B17	0.0153 KA relative to UGCAUGU
B18	0.0171 KA relative to UGCAUGU
B19	0.00726 KA relative to UGCAUGU
B20	0.0262 KA relative to UGCAUGU
B21	0.0333 KA relative to UGCAUGU
B22	0.0148 KA relative to UGCAUGU
B23	0.00202 KA relative to UGCAUGU
B24	0.0033 KA relative to UGCAUGU
B25	0.0047 KA relative to UGCAUGU
B26	0.00278 KA relative to UGCAUGU
B27	0.0206 KA relative to UGCAUGU
B28	0.00023 KA relative to UGCAUGU
B29	0.0213 KA relative to UGCAUGU
B30	0.0113 KA relative to UGCAUGU
B31	0.00564 KA relative to UGCAUGU
